T1: Full length human CD98hc on CHO cells (human)
T1 construct: CHO cells stably overexpressing it; also called CHO-human CD98hc; CHO-huCD98hc
T1 chain: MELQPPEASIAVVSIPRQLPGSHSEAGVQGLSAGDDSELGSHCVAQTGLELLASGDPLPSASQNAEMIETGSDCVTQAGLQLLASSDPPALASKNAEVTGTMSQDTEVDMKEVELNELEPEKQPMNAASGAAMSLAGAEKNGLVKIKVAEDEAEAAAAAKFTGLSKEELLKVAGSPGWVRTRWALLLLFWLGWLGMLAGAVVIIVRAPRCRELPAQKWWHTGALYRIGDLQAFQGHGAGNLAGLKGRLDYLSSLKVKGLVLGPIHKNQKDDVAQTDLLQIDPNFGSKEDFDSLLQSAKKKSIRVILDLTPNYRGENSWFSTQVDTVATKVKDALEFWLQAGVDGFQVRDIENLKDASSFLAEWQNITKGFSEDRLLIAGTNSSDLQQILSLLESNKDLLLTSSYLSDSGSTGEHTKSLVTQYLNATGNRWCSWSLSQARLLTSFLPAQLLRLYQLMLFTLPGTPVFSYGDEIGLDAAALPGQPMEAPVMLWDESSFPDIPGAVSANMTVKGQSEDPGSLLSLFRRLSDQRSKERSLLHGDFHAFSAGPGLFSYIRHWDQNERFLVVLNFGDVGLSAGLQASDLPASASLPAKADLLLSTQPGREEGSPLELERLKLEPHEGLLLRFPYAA

T2: Full length mouse CD98hc on CHO cells (mouse, UniProt P10852 1-526)
T2 construct: CHO cells stably overexpressing it; also called CHO-mouse CD98hc; CHO-mCD98hc
T2 sequence: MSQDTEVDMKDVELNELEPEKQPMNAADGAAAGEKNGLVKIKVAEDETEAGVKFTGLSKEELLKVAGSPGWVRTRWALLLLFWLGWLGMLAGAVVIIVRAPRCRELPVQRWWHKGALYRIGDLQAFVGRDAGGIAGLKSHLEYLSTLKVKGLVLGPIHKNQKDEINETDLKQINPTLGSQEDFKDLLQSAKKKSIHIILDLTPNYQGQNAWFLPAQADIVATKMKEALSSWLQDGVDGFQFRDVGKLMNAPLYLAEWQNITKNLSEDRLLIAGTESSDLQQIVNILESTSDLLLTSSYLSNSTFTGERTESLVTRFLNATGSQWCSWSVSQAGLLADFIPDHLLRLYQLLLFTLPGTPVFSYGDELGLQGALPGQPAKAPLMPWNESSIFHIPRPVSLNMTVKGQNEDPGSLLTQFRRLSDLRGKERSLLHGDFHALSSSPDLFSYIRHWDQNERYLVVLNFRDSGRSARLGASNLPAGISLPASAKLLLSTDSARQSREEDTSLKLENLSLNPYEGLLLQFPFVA

T3: muCD98hc ECD Avi-His (mouse, UniProt P10852 100-526)
T3 construct: biotinylated on the Avi tag where captured on streptavidin; also called Mouse CD98-AVI-His; Mouse CD98hc-AVI-His
T3 sequence: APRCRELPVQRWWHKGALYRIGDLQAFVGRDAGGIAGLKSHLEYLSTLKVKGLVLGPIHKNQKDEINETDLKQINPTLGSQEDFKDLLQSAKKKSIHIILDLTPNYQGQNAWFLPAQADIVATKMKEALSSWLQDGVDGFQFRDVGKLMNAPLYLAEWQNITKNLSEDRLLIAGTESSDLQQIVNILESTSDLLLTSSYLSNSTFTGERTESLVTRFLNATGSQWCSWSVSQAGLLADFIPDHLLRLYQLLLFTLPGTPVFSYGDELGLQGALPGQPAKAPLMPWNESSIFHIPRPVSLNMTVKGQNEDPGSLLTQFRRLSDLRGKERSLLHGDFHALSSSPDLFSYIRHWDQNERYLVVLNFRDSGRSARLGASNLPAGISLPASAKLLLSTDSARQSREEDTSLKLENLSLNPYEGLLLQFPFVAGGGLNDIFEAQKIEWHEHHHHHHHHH


Columns and labels:
[1] = target: T1, Full length human CD98hc on CHO cells; assay: FACS, 5 ug/ml
[2] = target: T2, Full length mouse CD98hc on CHO cells; assay: FACS, 5 ug/ml
[3] = target: T4, Human TfR-AVI-His (control) (human, UniProt P02786); assay: ELISA, 1 ug/ml
T4 construct: control protein; also called Avi-His-tagged human TfR; human transferrin receptor
T4 sequence (P02786 89-760 limits assumed): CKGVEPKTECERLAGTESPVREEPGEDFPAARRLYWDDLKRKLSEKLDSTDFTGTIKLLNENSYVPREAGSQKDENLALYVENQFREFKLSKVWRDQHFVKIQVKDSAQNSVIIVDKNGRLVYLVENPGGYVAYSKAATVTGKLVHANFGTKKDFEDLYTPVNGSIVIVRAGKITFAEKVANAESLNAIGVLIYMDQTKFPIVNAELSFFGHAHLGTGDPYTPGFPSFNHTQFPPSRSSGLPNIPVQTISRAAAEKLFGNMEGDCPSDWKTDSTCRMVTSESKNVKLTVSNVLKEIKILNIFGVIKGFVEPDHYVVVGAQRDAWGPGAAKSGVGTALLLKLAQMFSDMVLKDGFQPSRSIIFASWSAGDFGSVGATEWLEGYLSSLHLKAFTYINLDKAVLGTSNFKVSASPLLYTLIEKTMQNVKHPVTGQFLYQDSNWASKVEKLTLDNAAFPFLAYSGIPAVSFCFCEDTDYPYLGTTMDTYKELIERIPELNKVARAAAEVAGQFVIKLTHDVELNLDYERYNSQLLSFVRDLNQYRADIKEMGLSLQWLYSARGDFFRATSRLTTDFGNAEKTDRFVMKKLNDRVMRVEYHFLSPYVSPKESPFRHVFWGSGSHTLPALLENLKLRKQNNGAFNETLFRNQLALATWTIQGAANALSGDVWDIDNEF
Experimental: (§1) To determine binding retention of reformatted 2+1 anti-CD98hc bispecific antibodies by ELISA, high binding ELISA plates (Thermo Fisher) were coated with streptavidin (1 μg/ml, Thermo Fisher) overnight at 4° C. Plates were then washed three times with phosphate buffered saline with 0.05% tween-20 (PBST) and incubated with block buffer (PBS+1% BSA, 1 h, room temperature). Plates were washed three times again with PBST and incubated with biotinylated human, cyno, and mouse CD98hc and an irrelevant antigen, human transferrin receptor (1 μg/ml, 1 h, room temperature). Plates were washed three times again with PBST and incubated with anti-CD98hc antibodies (1 μg/ml, 1 h, room temperature). Plates were washed three times again with PBST and incubated with a secondary detection antibody, anti-human horseradish peroxidase conjugated antibody (1:5000 dilution, 30 min, room temperature). Plates were washed three times one last time and incubated with TMB-ELISA Substrate Solution (Thermo Fisher) and then quenched with H₂SO₄. Anti-CD98hc binding was then analyzed by quantifying optical density at 450 nm (OD₄₅₀) using the SpectraMax M5 (Molecular Devices). The binding characteristics of the various 2+1 anti-CD98hc bispecific antibodies to CD98hc (human, cyno, mouse) and control human TfR are summarized below in Table 16, shown as fold-change relative to isotype hIgG.

muCD98hc ECD Avi-His = target: T3, muCD98hc ECD Avi-His; assay: ELISA, 1 ug/ml
Experimental: as §1

Row | MFI fold-change relative to isotype hIgG1 [1] | MFI fold-change relative to isotype hIgG1 [2] | ELISA fold-change relative to isotype hIgG [3] | ELISA fold-change relative to isotype hIgG (muCD98hc ECD Avi-His) | Binder
1 | 4.7 | 0.6 | 1.3 | 1.6 | CD98hc.03.002 (2+1 bispecific antibody) (bispecific antibody) heavy 1: EVRLLESGGGLVQPGGSLRLSCAASGFTFSNYAMGWVRQAPGKGLEWVSAISGSGGSTYYADSVKGRFTTSRDDSKNALYLQMNSLRAEDTAVYYCARGGPGWYAADVWGQGTTVTVSSASTKGPSVFPLAPSSKSTSGGTAALGCLVKDYFPEPVTVSWNSGALTSGVHTFPAVLQSSGLYSLSSVVTVPSSSLGTQTYICNVNHKPSNTKVDKKV[here human IgG1 Fc with changes without letters]GGGGSGGGGSGGGGSDVQLVESGGGLVQPGGSRKLSCAASGFTFSTFGMHWVRQAPEKGLEWVAYISGGSTNIYYADTVKGRFTISRDNPKNTLFLQMTSLRSEDTAMYYCARETTLLATNFDYWGQGTTLTVSSGGSEGKSSGSGSESKSTGGSDIQMTQTTSSLSASLGDRVTISCRASQDISNYLNWYQQKPDGTVKLLIYYTSRLHSGVPSRFSGSGSGTDYSLTISNLEQEDIATYFCQQGSTLPRTFGGGTKLEIK heavy 2: EVRLLESGGGLVQPGGSLRLSCAASGFTFSNYAMGWVRQAPGKGLEWVSAISGSGGSTYYADSVKGRFTTSRDDSKNALYLQMNSLRAEDTAVYYCARGGPGWYAADVWGQGTTVTVSS[here human IgG1 constant region with changes without letters] light: DIQMTQSPSSLSASVGDRVTITCRASQSISSYLNWYQQKPGKAPKLLIYAASSLQSGVPSRFSGSGSGTDFTLTISSLQPEDFATYYCQQADLPAFAFGGGTKVEIKRTVAAPSVFIFPPSDEQLKSGTASVVCLLNNFYPREAKVQWKVDNALQSGNSQESVTEQDSKDSTYSLSSTLTLSKADYEKHKVYACEVTHQGLSSPVTKSFNRGEC
2 | 2.8 | 1.2 | 1.2 | 1.2 | CD98hc.03.010 (2+1 bispecific antibody) (bispecific antibody) heavy 1: EVRLLESGGGLVQPGGSLRLSCAASGFTFSNYAMGWVRQAPGKGLEWVSAISGSGGSTYYADSVKGRFTTSRDDSKNALYLQMNSLRAEDTAVYYCARGGPGWYAADVWGQGTTVTVSSASTKGPSVFPLAPSSKSTSGGTAALGCLVKDYFPEPVTVSWNSGALTSGVHTFPAVLQSSGLYSLSSVVTVPSSSLGTQTYICNVNHKPSNTKVDKKV[here human IgG1 Fc with changes without letters]GGGGSGGGGSGGGGSEVQLQQSGTELVKPGASVKLSCTASGLDIKDTYLHWVKQRPEQGLEWIGKIDPANGNTKYNPKFQGKATITADTSSNTAYLQLSSLTSEDTAVHYCTTPYYSGSSYGDYWGQGTTLTVSSGGSEGKSSGSGSESKSTGGSQIVLTQSPAIMSASPGEKVTLTCSASSSVSSSYLYWYQQKPGSSPKLWIYSTSNLASGVPARFSGSGSGTSYSLTISSMEAEDAASYFCHQWSRYPLTFGAGTKLELK heavy 2: EVRLLESGGGLVQPGGSLRLSCAASGFTFSNYAMGWVRQAPGKGLEWVSAISGSGGSTYYADSVKGRFTTSRDDSKNALYLQMNSLRAEDTAVYYCARGGPGWYAADVWGQGTTVTVSS[here human IgG1 constant region with changes without letters] light: DIQMTQSPSSLSASVGDRVTITCRASQSISSYLNWYQQKPGKAPKLLIYAASSLQSGVPSRFSGSGSGTDFTLTISSLQPEDFATYYCQQADLPAFAFGGGTKVEIKRTVAAPSVFIFPPSDEQLKSGTASVVCLLNNFYPREAKVQWKVDNALQSGNSQESVTEQDSKDSTYSLSSTLTLSKADYEKHKVYACEVTHQGLSSPVTKSFNRGEC
3 | 17.6 | 1.4 | 1.4 | 1.7 | CD98hc.03.031 (2+1 bispecific antibody) (bispecific antibody) heavy 1: EVRLLESGGGLVQPGGSLRLSCAASGFTFSNYAMGWVRQAPGKGLEWVSAISGSGGSTYYADSVKGRFTTSRDDSKNALYLQMNSLRAEDTAVYYCARGGPGWYAADVWGQGTTVTVSSASTKGPSVFPLAPSSKSTSGGTAALGCLVKDYFPEPVTVSWNSGALTSGVHTFPAVLQSSGLYSLSSVVTVPSSSLGTQTYICNVNHKPSNTKVDKKV[here human IgG1 Fc with changes without letters]GGGGSGGGGSGGGGSQVQLQQSGAELVRPGVSVKISCKASGYTFTDYAMHWVKQSHAKSLEWIGVISTYYGDTTYNQKFKDKATMTVDKSSSTAYLELARLTSEDSAIYYCARVWLLSYAMDNWGQGTSVTVSSGGSEGKSSGSGSESKSTGGSDIVMTQSQRFMSTSVGDGVRITCKASQNVRTAVAWYQQKPGQSPKALINLAPNRHTGVPDRFTARGSGTDFTLTISNVQSEDLADYFCLQHWNYPLTFGAGTKLELK heavy 2: EVRLLESGGGLVQPGGSLRLSCAASGFTFSNYAMGWVRQAPGKGLEWVSAISGSGGSTYYADSVKGRFTTSRDDSKNALYLQMNSLRAEDTAVYYCARGGPGWYAADVWGQGTTVTVSS[here human IgG1 constant region with changes without letters] light: DIQMTQSPSSLSASVGDRVTITCRASQSISSYLNWYQQKPGKAPKLLIYAASSLQSGVPSRFSGSGSGTDFTLTISSLQPEDFATYYCQQADLPAFAFGGGTKVEIKRTVAAPSVFIFPPSDEQLKSGTASVVCLLNNFYPREAKVQWKVDNALQSGNSQESVTEQDSKDSTYSLSSTLTLSKADYEKHKVYACEVTHQGLSSPVTKSFNRGEC

Reference: US20250270341A1 (Alector, published 2025)
